Reference: PMC12820563
This is one part of the list. The list includes weakly bound sequences.

These sequences were tested against T1, MBP-FoxP3dN (UniProt Q99JB6) (assay: PD-seq (MBP pull-down with sequencing)). Conditions: 20 mM Tris-HCl pH 7.5, 100 mM NaCl, 1.5 mM MgCl2, 0.4 uM protein, 0.1 uM dsDNA library, 30 min, room temperature, amylose pull-down; high values mean tight binding; double strand, one strand shown.
T1 sequence: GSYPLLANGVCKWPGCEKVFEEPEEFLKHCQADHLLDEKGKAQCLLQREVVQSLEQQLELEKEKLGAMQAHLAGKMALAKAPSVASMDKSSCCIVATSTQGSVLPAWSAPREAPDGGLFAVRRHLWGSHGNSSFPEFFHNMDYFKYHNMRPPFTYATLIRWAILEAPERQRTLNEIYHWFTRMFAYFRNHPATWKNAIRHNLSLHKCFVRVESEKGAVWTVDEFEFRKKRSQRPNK

| Sequence | binding signal (RPM ratio (pull-down/input)) |
| --- | --- |
| GATGATTGTTCTCCCAGCTGATGAATTCGGTGTATCGAGTAAACAAATTTTCCTAATCTTTCTGTTCAAGCGCCATCTAC | 2.21 |
| GATGATTGTTCTCCCAGCTGATGAATTATCTGTATCGAGTAAACAAATTTTCCTAATCTTTCTGTTCAAGCGCCATCTAC | 0.545 |
| GATGATTGTTCTCCCAGCTGATGAATTGCTCTGGTCGAGTAAACAAATTTTCCTAATCTTTCTGTTCAAGCGCCATCTAC | 0.342 |
| GATGATTGTTCTCCCAGCTGATGAATTTTACACTTCGAGTAAACAAATTTTCCTAATCTTTCTGTTCAAGCGCCATCTAC | 0.356 |
| GATGATTGTTCTCCCAGCTGATGAATTTGGAAGATCGAGTAAACAAATTTTCCTAATCTTTCTGTTCAAGCGCCATCTAC | 0.239 |
| GATGATTGTTCTCCCAGCTGATGAATTCGTCTTGTCGAGTAAACAAATTTTCCTAATCTTTCTGTTCAAGCGCCATCTAC | 0.593 |
| GATGATTGTTCTCCCAGCTGATGAATTGTTCACCTCGAGTAAACAAATTTTCCTAATCTTTCTGTTCAAGCGCCATCTAC | 0.475 |
| GATGATTGTTCTCCCAGCTGATGAATTTGTGAAATCGAGTAAACAAATTTTCCTAATCTTTCTGTTCAAGCGCCATCTAC | 0.516 |
| GATGATTGTTCTCCCAGCTGATGAATTATCGGTATCGAGTAAACAAATTTTCCTAATCTTTCTGTTCAAGCGCCATCTAC | 0.501 |
| GATGATTGTTCTCCCAGCTGATGAATTCTACCGATCGAGTAAACAAATTTTCCTAATCTTTCTGTTCAAGCGCCATCTAC | 0.283 |
| GATGATTGTTCTCCCAGCTGATGAATTGCTCCTCTCGAGTAAACAAATTTTCCTAATCTTTCTGTTCAAGCGCCATCTAC | 0.538 |
| GATGATTGTTCTCCCAGCTGATGAATTTCAACGCTCGAGTAAACAAATTTTCCTAATCTTTCTGTTCAAGCGCCATCTAC | 0.363 |
| GATGATTGTTCTCCCAGCTGATGAATTTGTCTTCTCGAGTAAACAAATTTTCCTAATCTTTCTGTTCAAGCGCCATCTAC | 4.22 |
| GATGATTGTTCTCCCAGCTGATGAATTGCAGCGGTCGAGTAAACAAATTTTCCTAATCTTTCTGTTCAAGCGCCATCTAC | 0.624 |
| GATGATTGTTCTCCCAGCTGATGAATTCACTTGGTCGAGTAAACAAATTTTCCTAATCTTTCTGTTCAAGCGCCATCTAC | 0.467 |
| GATGATTGTTCTCCCAGCTGATGAATTTTTAACATCGAGTAAACAAATTTTCCTAATCTTTCTGTTCAAGCGCCATCTAC | 0.428 |

| Sequence | binding signal (RPM ratio (pull-down/input)) |
| --- | --- |
| GATGATTGTTCTCCCAGCTGATGAATTAAATGGGTCGAGTAAACAAATTTTCCTAATCTTTCTGTTCAAGCGCCATCTAC | 0.388 |
| GATGATTGTTCTCCCAGCTGATGAATTGAGGGTCTCGAGTAAACAAATTTTCCTAATCTTTCTGTTCAAGCGCCATCTAC | 0.692 |
| GATGATTGTTCTCCCAGCTGATGAATTGTGAGGTTCGAGTAAACAAATTTTCCTAATCTTTCTGTTCAAGCGCCATCTAC | 0.784 |
| GATGATTGTTCTCCCAGCTGATGAATTGGTCTCTTCGAGTAAACAAATTTTCCTAATCTTTCTGTTCAAGCGCCATCTAC | 0.388 |
| GATGATTGTTCTCCCAGCTGATGAATTAACCCTTTCGAGTAAACAAATTTTCCTAATCTTTCTGTTCAAGCGCCATCTAC | 0.247 |
| GATGATTGTTCTCCCAGCTGATGAATTATGTTCTTCGAGTAAACAAATTTTCCTAATCTTTCTGTTCAAGCGCCATCTAC | 1.3 |
| GATGATTGTTCTCCCAGCTGATGAATTGGGAATGTCGAGTAAACAAATTTTCCTAATCTTTCTGTTCAAGCGCCATCTAC | 0.59 |
| GATGATTGTTCTCCCAGCTGATGAATTGTCATCTTCGAGTAAACAAATTTTCCTAATCTTTCTGTTCAAGCGCCATCTAC | 1.03 |
| GATGATTGTTCTCCCAGCTGATGAATTTACTGGTTCGAGTAAACAAATTTTCCTAATCTTTCTGTTCAAGCGCCATCTAC | 0.917 |
| GATGATTGTTCTCCCAGCTGATGAATTCTCTGTCTCGAGTAAACAAATTTTCCTAATCTTTCTGTTCAAGCGCCATCTAC | 0.237 |
| GATGATTGTTCTCCCAGCTGATGAATTATCTGTGTCGAGTAAACAAATTTTCCTAATCTTTCTGTTCAAGCGCCATCTAC | 0.427 |
| GATGATTGTTCTCCCAGCTGATGAATTAGCCGACTCGAGTAAACAAATTTTCCTAATCTTTCTGTTCAAGCGCCATCTAC | 0.205 |
| GATGATTGTTCTCCCAGCTGATGAATTGGTCACGTCGAGTAAACAAATTTTCCTAATCTTTCTGTTCAAGCGCCATCTAC | 0.539 |
| GATGATTGTTCTCCCAGCTGATGAATTTGCGTCTTCGAGTAAACAAATTTTCCTAATCTTTCTGTTCAAGCGCCATCTAC | 2.22 |
| GATGATTGTTCTCCCAGCTGATGAATTTCGGGAATCGAGTAAACAAATTTTCCTAATCTTTCTGTTCAAGCGCCATCTAC | 0.216 |
| GATGATTGTTCTCCCAGCTGATGAATTAGCCCACTCGAGTAAACAAATTTTCCTAATCTTTCTGTTCAAGCGCCATCTAC | 0.369 |
